Experimental data: PubChem BioAssay (NCATS)
Several values for one entry are separate records, joined by “and”; a condition that tells them apart may be missing. Equal entries are not always repeated. The shares of active, inactive and inconclusive entries below differ from those in the screen. For some assays here: A potency beside an inconclusive call is a rough fit, not a confirmed value. Activity calls are given as the source filed them. Unless noted, calls follow the shape of the dose curve; as a rule, active = well fitted curve in the direction sought with a large enough effect; inconclusive = small, poorly fitted or top-dose-only effect, or another doubt; inactive = no such curve, though single readings can be large; an effect the other way counts as inactive or inconclusive.

How the values were obtained:
[1] = P-glycoprotein substrates identified in KB-8-5-11 adenocarcinoma cell line, qHTS therapeutic library screen (AID 1346987); also: nearly all actives have a fitted effect of over 65% in size; also: potency is read from the fitted curve at half-maximal effect; as to activity change, negative = cytotoxicity: % is scaled to controls: 0 for no effect and ±100 for the full control effect
Method in brief: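 Luminescence from CellTiter-Glo, read 5 min after addition, quantified survival of KB-8-5-11 (P-gp-overexpressing) cells exposed to compounds for 72 h. AC50 was derived from concentration-response curves.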

[2] = Primary qHTS for small molecule stabilizers of the endoplasmic reticulum resident proteome: Secreted ER Calcium Modulated Protein (SERCaMP) assay (AID 1508630); details: SH-SY5Y GLuc-SERCaMP (Gaussia luciferase released on ER calcium loss) secretion, thapsigargin, luminescence; activity change, negative = inhibition: at 38.4 µM (top of the series) unless noted; also: potency is read from the fitted curve at half-maximal effect
Method in brief: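 The SH-SY5Y reporter protocol was run at 3 concentrations up to 38.3 uM (primary) or 11 concentrations (follow-up): 16 h compound, 100 nM thapsigargin for 4 h, then extracellular luciferase luminescence.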

HEK293 = test: Cytotoxic Profiling of Annotated Libraries Using Quantitative High-Throughput Screening (AID 1296008); details: Five cell lines viability, CellTiter-Glo ATP luminescence, 48-72 h; max response: stronger effect = lower value; also: nearly all actives have a fitted effect of over 60% in size; also: potency is read from the fitted curve at half-maximal effect
Method in brief: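 Compounds were pin-transferred onto cells and incubated 48 or 72 hr at 37 degree Celsius, 95% humidity. CellTiter-Glo was added, plates sat 10 min at room temperature, then ATP-coupled luminescence was imaged as the viability read-out.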

[3] = Drug repurposing screens with cells derived from glioblastoma tumor samples (AID 1345199); details: GBM patient neurospheres viability, ATP luminescence, 48 h; Potency: tumour line A unless noted; activity, negative = cell killing: at 46 µM (top of the series), tumour line A unless noted; also: nearly all actives have a fitted effect of over 40% in size; also: potency is read from the fitted curve at half-maximal effect; as to activity, negative = cell killing: % is scaled to controls: 0 for no effect and ±100 for the full control effect
Method in brief: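 Primary testing used CD133+ neurospheres from four GBM patients, seven concentrations, 48 h exposure and ATP-based viability; confirmation added three slower-growing patient lines.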

[4] = target: Cytochrome P450 2D6 (Homo sapiens) (UniProt P10635); test: Cytochrome P450 family 2 subfamily D member 6 (CYP2D6) small molecule antagonists: luciferase biochemical (cell-free) qHTS assay (AID 1645840; active = well fitted curve in the direction sought with a large enough effect in the repeat runs; inconclusive = weak or mixed curves; inactive = no such curve, though single readings can be large; an effect the other way counts as inactive or inconclusive; also: potency is read from the fitted curve at half-maximal effect; nearly all actives have a fitted effect of over 55% in size)
Method in brief: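 P450-Glo CYP2D6 system: proluciferin substrate converted by enzyme to luciferin, read by luminescence proportional to activity. Enzyme-substrate mix with compound 10 min at room temperature, then NADPH regeneration 1 h before detection reagent.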

C33A = test: Primary qHTS to identify gynecologic anti-cancer compounds using libraries of approved drugs and bioactive compounds (AID 1345084); details: Gynecologic cancer cell panel viability, ATPlite luminescence, 48 h; series mostly up to 57.5 µM; also: nearly all actives have a fitted effect of over 55% in size; also: potency is read from the fitted curve at half-maximal effect; as to activity change, negative = cytotoxicity: % is scaled to controls: 0 for no effect and ±100 for the full control effect
Method in brief: (§1)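 Cells, 1,000 per well, were allowed to settle for 16 h at 37 C before compound addition. Five concentrations were tested for 48 h, and viability was read by ATPlite luminescence after 15 min at room temperature.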

CAOV3 = test: as above; details: Gynecologic cancer cell panel viability, ATPlite luminescence, 48 h; activity change, negative = cytotoxicity: at 57.5 µM (top of the series)
Method in brief: as §1

CASKI = test: as above; details: Gynecologic cancer cell panel viability, ATPlite luminescence, 48 h; series mostly up to 57.5 µM
Method in brief: as §1

HeLa = test: as above; details: Gynecologic cancer cell panel viability, ATPlite luminescence, 48 h; activity change, negative = cytotoxicity: at 57.5 µM (top of the series)
Method in brief: as §1

Hek293T = test: as above; details: Gynecologic cancer cell panel viability, ATPlite luminescence, 48 h, control line for the selectivity index; activity change, negative = cytotoxicity: at 57.5 µM (top of the series) unless noted
Method in brief: as §1

OV90 = test: as above; details: Gynecologic cancer cell panel viability, ATPlite luminescence, 48 h; series mostly up to 57.5 µM
Method in brief: as §1

PA-1 = test: as above; details: Gynecologic cancer cell panel viability, ATPlite luminescence, 48 h; series mostly up to 57.5 µM
Method in brief: as §1

SKOV3 = test: as above; details: Gynecologic cancer cell panel viability, ATPlite luminescence, 48 h; series mostly up to 57.5 µM
Method in brief: as §1

Tov-21-G = test: as above; details: Gynecologic cancer cell panel viability, ATPlite luminescence, 48 h; activity change, negative = cytotoxicity: at 57.5 µM (top of the series) unless noted
Method in brief: as §1

Tov112D = test: as above; details: Gynecologic cancer cell panel viability, ATPlite luminescence, 48 h; series mostly up to 57.5 µM
Method in brief: as §1

[5] = Primary qHTS for inhibitors of nuclear receptor binding SET domain protein 2 (NSD2) in an isogenic RCH-ACV NSD2 p.E1099K mutant (9B) (AID 1645876); also: nearly all actives have a fitted effect of over 70% in size; also: potency is read from the fitted curve at half-maximal effect
[6] = Primary qHTS for inhibitors of nuclear receptor binding SET domain protein 2 (NSD2) in an RCH-ACV wild type WT cells (2C) (AID 1645877); details: activity change, negative = cell killing: at 44.9 µM (top of the series) unless noted; also: nearly all actives have a fitted effect of over 70% in size; also: potency is read from the fitted curve at half-maximal effect; as to activity change, negative = cell killing: % is scaled to controls: 0 for no effect and ±100 for the full control effect
MKL-2 = test: qHTS assay to identify novel small-molecules to repurpose for Merkel cell carcinoma treatment (AID 1296009); details: MCC and control cell lines, CellTiter-Glo viability, 72 h; activity change, negative = cytotoxicity: at 46 µM (top of the series); also: nearly all actives have a fitted effect of over 60% in size; also: potency is read from the fitted curve at half-maximal effect
Method in brief: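 Viability readout: ATP luminescence (CellTiter-Glo) after 72 hr drug exposure at 37 degree celsius. Dose-response format was 8 points for NPC and 11 points for MIPE; data normalized to in-plate controls.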

[7] = system: Zika virus NS2B-NS3 protease (unlinked complex); test: Primary screen GU Rhodamine qHTS for Zika virus inhibitors: Unlinked NS2B-NS3 protease assay (AID 1347159); also: nearly all actives have a fitted effect of over 60% in size; also: potency is read from the fitted curve at half-maximal effect
Method in brief: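 Unlinked NS2B/NS3, 25 nM; Rhod110 peptide, 1.5 microM; compounds, up to 114 microM. Reaction run 15 min at RT in 10 mM Tris-HCl pH 8.0, 0.01% Tween 20; kinetic fluorescence change fitted with a 4-parameter Hill model.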

[8] = Primary fluorescence-based thiol-reactive (MSTI) qHTS assay for identification of artifact compounds. (AID 1845221);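 also: thiol-reactive compounds lower the probe fluorescence signal; nearly all actives have a fitted effect of over 65% in size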
Method in brief: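 qHTS titration of compound; 4 uM MSTI, PBS pH 7.4, 2% DMSO; 1 h RT, dark; fluorescence 525/598 nm; normalized to Acetyl-MSTI and MSTI; 4-parameter Hill fit.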
Tags tell the direction and shape of the fitted curve.

UniProt P10635, sequence (P10635 whole entry, looked up): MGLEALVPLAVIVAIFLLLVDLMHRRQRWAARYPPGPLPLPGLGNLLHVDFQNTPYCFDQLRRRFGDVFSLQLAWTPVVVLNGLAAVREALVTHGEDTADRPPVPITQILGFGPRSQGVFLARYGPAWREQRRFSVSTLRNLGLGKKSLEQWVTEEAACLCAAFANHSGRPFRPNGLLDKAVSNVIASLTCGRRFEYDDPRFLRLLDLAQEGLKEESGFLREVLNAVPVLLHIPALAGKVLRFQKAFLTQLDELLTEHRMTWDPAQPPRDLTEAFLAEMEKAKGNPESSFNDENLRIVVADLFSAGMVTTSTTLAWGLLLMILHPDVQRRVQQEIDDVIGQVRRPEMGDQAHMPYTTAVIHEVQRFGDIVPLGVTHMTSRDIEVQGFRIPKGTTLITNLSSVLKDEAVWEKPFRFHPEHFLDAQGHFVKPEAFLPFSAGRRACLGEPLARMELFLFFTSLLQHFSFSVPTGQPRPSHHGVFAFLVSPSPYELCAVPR

O=C1C(c2[nH]c3ccccc3c2O)=Nc2ccccc21
inconclusive: Potency [2] 10 µM [inhibitor, single point]
inactive: Potency [1] | outcome (HEK293) | Potency [3]

CCOc1cc(CNC2CCCC2)cc(Cl)c1OCc1ccc(Cl)cc1
inconclusive: Potency [1] 18.4 µM [inhibitor, single point] | Potency (HEK293) 29.1 µM [inhibitor, single point] | Potency (C33A) 35.5 µM [cytotoxic, single point] | Potency (CASKI) 31.6 µM [cytotoxic, single point] | Potency (HeLa) 39.8 µM [cytotoxic, single point] | Potency (Hek293T) 39.8 µM [cytotoxic, single point] | Potency (OV90) 39.8 µM [cytotoxic, single point] | Potency (PA-1) 25.1 µM [cytotoxic, single point] | Potency (SKOV3) 35.5 µM [cytotoxic, single point] | Potency (Tov-21-G) 39.8 µM [cytotoxic, single point] | Potency (Tov112D) 39.8 µM [cytotoxic, single point]
active: Potency [4] 1.51 µM | Potency (CAOV3) 22.4 µM

CC1(C)OC(=O)Nc2ccc(Br)cc21
active: Potency (HeLa) 10 µM
inactive: Potency [5] | Potency [6] | outcome (HEK293) | Potency (Hek293T) | Potency (OV90) | Potency (MKL-2)
inconclusive: Potency [4] 38.9 µM [inhibitor, single point]

NCCNC(=O)c1ccc(Cl)cn1
inconclusive: Potency (CAOV3) 5.01 µM [rising, partial curve, poor fit] | Potency (MKL-2) 21.1 µM [inhibitor, single point]
inactive: max response (HEK293) -1.7% | Potency [3]

CC(CNC1CCCCC1)OC(=O)c1ccccc1 (stereo not given)
inconclusive: Potency (OV90) 39.8 µM [cytotoxic, single point] | Potency [3] 2 µM [inhibitor, full curve]
inactive: Potency [1] | max response (HEK293) -47.9% | Potency (HeLa) | Potency (Hek293T)

CN(C)CC[C@H](c1ccc(Cl)cc1)c1ccccn1
inactive: max response (HEK293) -15.3%
inconclusive: Potency [2] 2 µM [inhibitor, full curve, poor fit]

O=C(NCc1ccc(S(=O)(=O)c2cc(F)cc(F)c2)cc1)c1ccc2nccn2c1
active: Potency (HEK293) 0.0052 µM | Potency (CAOV3) 0.316 µM
inactive: Potency [7]
inconclusive: Potency (C33A) 0.1 µM | Potency (CASKI) 0.316 µM [cytotoxic, full curve, poor fit] | Potency (HeLa) 1120 µM | Potency (Hek293T) 22.4 µM | Potency (OV90) 0.1 µM [cytotoxic, full curve, poor fit] | Potency (PA-1) 100 µM | Potency (SKOV3) 11.2 µM | Potency (Tov-21-G) 89.1 µM | Potency (Tov112D) 7.08 µM

CCCN(CCC)C(=O)C(CCC(=O)OCCCN1CCN(CCOC(=O)Cc2c(C)n(C(=O)c3ccc(Cl)cc3)c3ccc(OC)cc23)CC1)NC(=O)c1ccccc1 (stereo not given)
inactive: Potency [8] | Potency (CAOV3) | Potency (Hek293T)
inconclusive: Potency [1] 3.26 µM [inhibitor, partial curve, poor fit] | Potency [7] 70.8 µM [inhibitor, single point] | Potency [2] 10 µM [inhibitor, single point] | Potency [5] 26.6 µM [inhibitor, single point] | Potency [6] 29.9 µM [inhibitor, single point] | Potency (HEK293) 23.7 µM [inhibitor, single point] | Potency (SKOV3) 2.82 µM [rising, partial curve, poor fit] | Potency (MKL-2) 15 µM [inhibitor, single point]

CCCCC1C(=O)N(c2ccccc2)N(c2ccccc2)C1=O
inconclusive: max response (HEK293) -39% [inhibitor] | Potency [3] 20 µM [inhibitor, single point] and 22.4 µM [inhibitor, partial curve, poor fit]
inactive: Potency [1] | Potency [6] | Potency (C33A)
